{
  "source": "the supplement of paper PMC8728848",
  "assay_in_all_cases": "glycan array binding signal (z-score within array); higher = stronger binding",
  "details_in_all_cases": "glycan notation: IUPAC condensed, linker removed",
  "key": {"[1]": {"molecular_target": "Gal(b1-3)GlcNAc(b1-2)Man(a1-3)[GlcNAc(b1-4)][Gal(b1-3)GlcNAc(b1-2)Man(a1-6)]Man(b1-4)GlcNAc(b1-4)GlcNAc", "procedure,_shortened": "(§1)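 Glycan array binding is given as a within-array Z-score, which can be read as non-binding when negative. The arrays, 3228 of them, came from the Consortium for Functional Glycomics database and were retained only where the protein sequence was available. Z-scores were averaged across arrays of the same protein sequence at different concentrations or buffers and across linkers.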"}, "[2]": {"molecular_target": "Gal(b1-3)GlcNAc(b1-2)[Gal(b1-3)GlcNAc(b1-6)]Man(a1-6)[Gal(b1-3)GlcNAc(b1-2)Man(a1-3)]Man(b1-4)GlcNAc(b1-4)GlcNAc", "procedure,_shortened": "as §1"}, "[3]": {"molecular_target": "Gal(b1-3)GlcNAc(b1-3)Gal(b1-3)GlcNAc", "procedure,_shortened": "as §1"}, "[4]": {"molecular_target": "Gal(b1-3)GlcNAc(b1-3)Gal(b1-4)Glc", "procedure,_shortened": "as §1"}, "[5]": {"molecular_target": "Gal(b1-3)GlcNAc(b1-3)Gal(b1-4)GlcNAc", "procedure,_shortened": "as §1"}, "[6]": {"molecular_target": "Gal(b1-3)GlcNAc(b1-3)Gal(b1-4)GlcNAc(b1-2)Man(a1-3)[Gal(b1-3)GlcNAc(b1-3)Gal(b1-4)GlcNAc(b1-2)Man(a1-6)]Man(b1-4)GlcNAc(b1-4)GlcNAc", "procedure,_shortened": "as §1"}, "[7]": {"molecular_target": "Gal(b1-3)GlcNAc(b1-3)Gal(b1-4)GlcNAc(b1-2)[Gal(b1-3)GlcNAc(b1-3)Gal(b1-4)GlcNAc(b1-6)]Man(a1-6)[Gal(b1-3)GlcNAc(b1-3)Gal(b1-4)GlcNAc(b1-2)Man(a1-3)]Man(b1-4)GlcNAc(b1-4)[Fuc(a1-6)]GlcNAc", "procedure,_shortened": "as §1"}, "[8]": {"molecular_target": "Gal(b1-3)GlcNAc(b1-3)Gal(b1-4)GlcNAc(b1-3)Gal(b1-4)GlcNAc(b1-2)[Gal(b1-3)GlcNAc(b1-3)Gal(b1-4)GlcNAc(b1-3)Gal(b1-4)GlcNAc(b1-6)]Man(a1-6)[Gal(b1-3)GlcNAc(b1-3)Gal(b1-4)GlcNAc(b1-3)Gal(b1-4)GlcNAc(b1-2)Man(a1-3)]Man(b1-4)GlcNAc(b1-4)[Fuc(a1-6)]GlcNAc", "procedure,_shortened": "as §1"}, "[9]": {"molecular_target": "Gal(b1-3)GlcNAc(b1-3)Gal(b1-4)GlcNAc(b1-6)[Gal(b1-3)GlcNAc(b1-3)]Gal(b1-4)Glc", "procedure,_shortened": "as §1"}, "[10]": {"molecular_target": "Gal(b1-3)GlcNAc(b1-3)Gal(b1-4)[Fuc(a1-3)]GlcNAc", "procedure,_shortened": "as §1"}, "[11]": {"molecular_target": "Gal(b1-3)GlcNAc(b1-3)Gal(b1-4)[Fuc(a1-3)]GlcNAc(b1-6)[Gal(b1-3)GlcNAc(b1-3)]Gal(b1-4)Glc", "procedure,_shortened": "as §1"}, "[12]": {"molecular_target": "Gal(b1-3)GlcNAc(b1-3)GalNAc", "procedure,_shortened": "as §1"}, "[13]": {"molecular_target": "Gal(b1-3)GlcNAc(b1-6)Gal(b1-4)GlcNAc", "procedure,_shortened": "as §1"}, "[14]": {"molecular_target": "Gal(b1-3)GlcNAc(b1-6)GalNAc", "procedure,_shortened": "as §1"}, "[15]": {"molecular_target": "Gal(b1-3)GlcNAc(b1-6)[Gal(b1-3)]GalNAc", "procedure,_shortened": "as §1"}, "Gal(b1-3)GlcNAc6S": {"molecular_target": "Gal(b1-3)GlcNAc6S", "procedure,_shortened": "as §1"}, "[16]": {"molecular_target": "Gal(b1-3)[Fuc(a1-4)]GlcNAc", "procedure,_shortened": "as §1"}, "[17]": {"molecular_target": "Gal(b1-3)[Fuc(a1-4)]GlcNAc(b1-2)Man", "procedure,_shortened": "as §1"}, "[18]": {"molecular_target": "Gal(b1-3)[Fuc(a1-4)]GlcNAc(b1-2)Man(a1-3)[Gal(b1-3)[Fuc(a1-4)]GlcNAc(b1-2)Man(a1-6)]Man(b1-4)GlcNAc(b1-4)[Fuc(a1-6)]GlcNAc", "procedure,_shortened": "as §1"}, "[19]": {"molecular_target": "Gal(b1-3)[Fuc(a1-4)]GlcNAc(b1-3)Gal(b1-3)[Fuc(a1-4)]GlcNAc", "procedure,_shortened": "as §1"}, "[20]": {"molecular_target": "Gal(b1-3)[Fuc(a1-4)]GlcNAc(b1-3)Gal(b1-4)[Fuc(a1-3)]GlcNAc", "procedure,_shortened": "as §1"}, "[21]": {"molecular_target": "Gal(b1-3)[Fuc(a1-4)]GlcNAc(b1-6)GalNAc", "procedure,_shortened": "as §1"}, "[22]": {"molecular_target": "Gal(b1-3)[GlcNAc(b1-6)]GalNAc", "procedure,_shortened": "as §1"}, "[23]": {"molecular_target": "Gal(b1-3)[Neu5Ac(a2-6)]GalNAc", "procedure,_shortened": "as §1"}, "[24]": {"molecular_target": "Gal(b1-3)[Neu5Ac(a2-6)]GlcNAc(b1-4)Gal(b1-4)Glc", "procedure,_shortened": "as §1"}, "[25]": {"molecular_target": "Gal(b1-3)[Neu5Ac(b2-6)]GalNAc", "procedure,_shortened": "as §1"}, "Gal(b1-4)Gal": {"molecular_target": "Gal(b1-4)Gal", "procedure,_shortened": "as §1"}, "[26]": {"molecular_target": "Gal(b1-4)GalNAc(a1-3)[Fuc(a1-2)]Gal(b1-4)GlcNAc", "procedure,_shortened": "as §1"}, "[27]": {"molecular_target": "Gal(b1-4)GalNAc(b1-3)[Fuc(a1-2)]Gal(b1-4)GlcNAc", "procedure,_shortened": "as §1"}, "Gal(b1-4)Glc": {"molecular_target": "Gal(b1-4)Glc", "procedure,_shortened": "as §1"}, "Gal(b1-4)Glc6S": {"molecular_target": "Gal(b1-4)Glc6S", "procedure,_shortened": "as §1"}, "Gal(b1-4)GlcNAc": {"molecular_target": "Gal(b1-4)GlcNAc", "procedure,_shortened": "as §1"}, "[28]": {"molecular_target": "Gal(b1-4)GlcNAc(a1-6)Gal(b1-4)GlcNAc", "procedure,_shortened": "as §1"}, "Gal(b1-4)GlcNAc(b1-2)Man": {"molecular_target": "Gal(b1-4)GlcNAc(b1-2)Man", "procedure,_shortened": "as §1"}, "[29]": {"molecular_target": "Gal(b1-4)GlcNAc(b1-2)Man(a1-3)Man(b1-4)GlcNAc(b1-4)GlcNAc", "procedure,_shortened": "as §1"}, "[30]": {"molecular_target": "Gal(b1-4)GlcNAc(b1-2)Man(a1-3)[Gal(b1-4)GlcNAc(b1-2)Man(a1-6)]Man(b1-4)GlcNAc(b1-4)GlcNAc", "procedure,_shortened": "as §1"}, "[31]": {"molecular_target": "Gal(b1-4)GlcNAc(b1-2)Man(a1-3)[Gal(b1-4)GlcNAc(b1-2)Man(a1-6)]Man(b1-4)GlcNAc(b1-4)[Fuc(a1-6)]GlcNAc", "procedure,_shortened": "as §1"}},
  "note": "The list shows a part of the results.",
  "data": [
    {"binder": "CaSRK1 (Capsicum annuum) (protein) MALCKIFPFAFILLSCSCYLISGQRFDYPTANLSTTWINSVSAPHSIDYTDGSRIRAILLRGTFGPRYACGFYCNGNCESYLFAIFIVQTNSASQITSPAIGFPQVVWSANRNNPVKINSTLQLTAEGDLVLRDADGTLAWSTNTAGKSVAGLSLTDEGNLALFDSKNATVWQSFDHPTDALVPGQKLVPGMKLTASVSRTNWTAGGLFALSAIDNGLVAFVESNPPQKYFEASVGGSNTSGGSNYVKYLNGSLTLFTHSADTTELILISITPASSAQYMKLESNGHLKVYEWTSRGWREVDDLLTGFRGECNYPTVCGRYGICTMGQCSCPTSSSSRTYFRPIDVRRPSLGCSEVTKLTCQNTKKHSPLEVEDVDYFAFKAGISDTDLNTCKRACLEKCSCKAAFFRSGLNSSRTRGDCYLPTEIFSIMNNEKDRTRYDSVAFIKVQV", "values": [
      {"measurement": "glycan array binding signal (z-score)", "setting": "[1]", "result": -0.118},
      {"measurement": "glycan array binding signal (z-score)", "setting": "[2]", "result": -0.03},
      {"measurement": "glycan array binding signal (z-score)", "setting": "[3]", "result": -0.295},
      {"measurement": "glycan array binding signal (z-score)", "setting": "[4]", "result": -0.519},
      {"measurement": "glycan array binding signal (z-score)", "setting": "[5]", "result": -0.055},
      {"measurement": "glycan array binding signal (z-score)", "setting": "[6]", "result": 0.511},
      {"measurement": "glycan array binding signal (z-score)", "setting": "[7]", "result": -0.461},
      {"measurement": "glycan array binding signal (z-score)", "setting": "[8]", "result": -0.395},
      {"measurement": "glycan array binding signal (z-score)", "setting": "[9]", "result": -0.019},
      {"measurement": "glycan array binding signal (z-score)", "setting": "[10]", "result": 0.058},
      {"measurement": "glycan array binding signal (z-score)", "setting": "[11]", "result": -0.503},
      {"measurement": "glycan array binding signal (z-score)", "setting": "[12]", "result": -0.422},
      {"measurement": "glycan array binding signal (z-score)", "setting": "[13]", "result": -0.25},
      {"measurement": "glycan array binding signal (z-score)", "setting": "[14]", "result": -0.572},
      {"measurement": "glycan array binding signal (z-score)", "setting": "[15]", "result": -0.384},
      {"measurement": "glycan array binding signal (z-score)", "setting": "Gal(b1-3)GlcNAc6S", "result": -0.378},
      {"measurement": "glycan array binding signal (z-score)", "setting": "[16]", "result": -0.062},
      {"measurement": "glycan array binding signal (z-score)", "setting": "[17]", "result": -0.011},
      {"measurement": "glycan array binding signal (z-score)", "setting": "[18]", "result": -0.295},
      {"measurement": "glycan array binding signal (z-score)", "setting": "[19]", "result": -0.577},
      {"measurement": "glycan array binding signal (z-score)", "setting": "[20]", "result": -0.053},
      {"measurement": "glycan array binding signal (z-score)", "setting": "[21]", "result": -0.532},
      {"measurement": "glycan array binding signal (z-score)", "setting": "[22]", "result": -0.456},
      {"measurement": "glycan array binding signal (z-score)", "setting": "[23]", "result": -0.368},
      {"measurement": "glycan array binding signal (z-score)", "setting": "[24]", "result": -0.357},
      {"measurement": "glycan array binding signal (z-score)", "setting": "[25]", "result": -0.561},
      {"measurement": "glycan array binding signal (z-score)", "setting": "Gal(b1-4)Gal", "result": -0.549},
      {"measurement": "glycan array binding signal (z-score)", "setting": "[26]", "result": -0.479},
      {"measurement": "glycan array binding signal (z-score)", "setting": "[27]", "result": -0.34},
      {"measurement": "glycan array binding signal (z-score)", "setting": "Gal(b1-4)Glc", "result": -0.133},
      {"measurement": "glycan array binding signal (z-score)", "setting": "Gal(b1-4)Glc6S", "result": -0.386},
      {"measurement": "glycan array binding signal (z-score)", "setting": "Gal(b1-4)GlcNAc", "result": 0.086},
      {"measurement": "glycan array binding signal (z-score)", "setting": "[28]", "result": -0.479},
      {"measurement": "glycan array binding signal (z-score)", "setting": "Gal(b1-4)GlcNAc(b1-2)Man", "result": 0.719},
      {"measurement": "glycan array binding signal (z-score)", "setting": "[29]", "result": 0.199},
      {"measurement": "glycan array binding signal (z-score)", "setting": "[30]", "result": -0.379},
      {"measurement": "glycan array binding signal (z-score)", "setting": "[31]", "result": 0.418}
    ]}
  ]
}
